“And” between values parts separate entries of the source, which are not always exact repeats. Equal values may be shown once. About 2,100 (0.72%) of roughly 290,000 compounds were called active. Inconclusive results, whose numbers are uncertain, are shown with a selection of clear calls. The call rests on the fitted dose curve; in most records, active means well fitted inhibition curve with a large enough effect; inconclusive means small, poorly fitted or top-dose-only effect, or effect the other way; inactive means flat fitted curve, though single readings scatter. Potencies of inconclusive entries are doubtful fits and often do not repeat.
These compounds were tested against Fructose-bisphosphate aldolase (Giardia intestinalis (strain ATCC 50803 / WB clone C6)) (UniProt A8B2U2) (assay: qHTS Assay for Inhibitors of Fructose-1,6-bisphosphate Aldolase from Giardia Lamblia). Conditions: purified Giardia FBPA; series mostly up to 59.6 µM.
UniProt A8B2U2, sequence (A8B2U2 whole entry, looked up): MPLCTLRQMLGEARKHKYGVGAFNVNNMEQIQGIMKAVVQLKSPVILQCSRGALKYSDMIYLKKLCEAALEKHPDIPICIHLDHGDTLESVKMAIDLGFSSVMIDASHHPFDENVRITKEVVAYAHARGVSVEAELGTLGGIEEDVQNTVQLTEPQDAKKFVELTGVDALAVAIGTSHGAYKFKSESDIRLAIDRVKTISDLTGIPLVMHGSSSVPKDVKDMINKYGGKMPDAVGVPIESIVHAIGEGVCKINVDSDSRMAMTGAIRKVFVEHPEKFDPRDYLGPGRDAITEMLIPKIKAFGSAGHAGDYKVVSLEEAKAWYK
Procedure, shortened: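 40 nM FBPA preincubated 10 min at RT with compound (up to 57.5 uM final), then substrate plus GAPDH/TPI/NAD/arsenate coupling and diaphorase/resazurin added. Fluorescence read after 20 min at RT, 525/598 nm.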
`COc1cc2c(cc1O)CC[n+]1cc3c(OC)c(OC)ccc3cc1-2` was tested, and the Potency was inconclusive: 19.9 µM [inhibitor, partial curve]. `CCOC(=O)N1CCC(N(C(=O)Nc2ccc(Cl)c(Cl)c2)C(C)CC)CC1` (stereo not given) was tested, and the Potency was inconclusive: 15.8 µM [inhibitor, single point]. In the case of `COc1ccc(C(=O)Nc2sc3c(c2C#N)CCN(C(C)=O)C3)cc1`, the Potency is reported as inconclusive: 17.7 µM [inhibitor, single point]. With `CCn1c(NCc2ccccc2NS(=O)(=O)c2ccc(C)cc2)nc2ccccc21` the Potency was “inactive”. For `COc1ccc(/C(=N/OC(C)=O)c2nccc3cc(OC)c(OC)cc23)cc1OC`, the Potency was inconclusive: 15.8 µM [inhibitor, partial curve]. With `c1cncc(-c2nnc(SCc3nc4ccccc4[nH]3)o2)c1` the Potency was inconclusive: 17.7 µM [inhibitor, partial curve]. For `COc1ccc(C(=O)Nc2cnc3sc(C)nn3c2=O)cc1`, the Potency was “inactive”. In the case of `Cn1c(O)c(C(c2ccccn2)c2c(O)n(C)c(=S)n(C)c2=O)c(=O)n(C)c1=S`, the Potency is reported as inconclusive: 7.06 µM [inhibitor, full curve, poor fit]. For `COC(=O)c1ccccc1NC(=O)CS(=O)(=O)Cc1nc(-c2ccc(C)cc2)oc1C`, the Potency was “inactive”. With `c1cncc(C2Nc3cccc4cccc(c34)N2)c1` the Potency was inconclusive: 11.2 µM [inhibitor, partial curve]. `CC(C)N(C(C)C)S(=O)(=O)c1ccc(Cl)nc1` was tested, and the Potency was “inactive”. In the case of `CCCCCCCC1=CC2=CC(=O)C(C)(OC(C)=O)C(=O)C2=CN1CCc1ccccc1` (stereo not given), the Potency is reported as inconclusive: 17.7 µM [inhibitor, partial curve] and inconclusive: 2.23 µM [inhibitor, partial curve]. `CC(=O)c1sc(N/N=C2\CC3CCC2(C)C3(C)C)nc1C` (stereo not given) was tested, and the Potency was inconclusive: 17.7 µM [inhibitor, partial curve]. `Nc1ccc(S(=O)(=O)Nc2nc3ccccc3o2)cc1` was tested, and the Potency was inconclusive: 14.1 µM [inhibitor, partial curve]. `CCN1CCCC1CNC(=O)C1c2cc(OC)c(OC)cc2C(=O)N(C)C1c1cccnc1` (stereo not given) was tested, and the Potency was inconclusive: 22.3 µM [inhibitor, single point]. With `c1cc2c(cc1-c1csc(NNC3=NCCCCC3)n1)OCCO2` the Potency was active: 14.1 µM. `CCOC(=O)C1CCCN(C(=O)c2cn(CC)c(=O)c3cc(OC)c(OC)cc23)C1` (stereo not given) was tested, and the Potency was “inactive”. With `O=C(NN=C1CCC(=NNC(=O)c2cccnc2)CC1)c1cccnc1` the Potency was inconclusive: 17.7 µM [inhibitor, partial curve]. `COc1cccc(NC(=S)NC(=O)/C=C/c2ccco2)c1` was tested, and the Potency was inconclusive: 14.1 µM [inhibitor, partial curve]. With `COc1ccc(C(=O)c2c(C(F)(F)F)oc3c2C(=O)c2ccccc2C3=O)cc1` the Potency was inconclusive: 0.5 µM [inhibitor, full curve]. With `CC1=C(C(=O)Nc2ccccc2)C2(CCCCC2)C(C#N)=C(S)N1` the Potency was inconclusive: 4.46 µM [inhibitor, partial curve]. With `O=C(CN1CCCC1)N1c2ccccc2Sc2ccc(Cl)cc21` the Potency was inconclusive: 35.5 µM [inhibitor, single point]. With `COc1ccc(N2COC3c4cccc5cccc(c45)C32)cc1` (stereo not given) the Potency was inconclusive: 35.4 µM [inhibitor, single point]. In the case of `Cc1ccc(Cn2cc(-c3ccccc3)nn2)cc1`, the Potency is reported as “inactive”. For `Cc1ccc2nc(NC(=O)CC3Oc4ccccc4NC3=O)sc2c1` (stereo not given), the Potency was “inactive”. For `O=C(N/N=C/c1cc([N+](=O)[O-])ccc1O)c1ccc2c(c1)OCCO2`, the Potency was inconclusive: 44.6 µM [activator, single point]. With `CON/C=N/C(=S)Nc1ncc(C(F)(F)F)cc1Cl` the Potency was active: 6.29 µM. With `CCCn1c(=O)[nH]c(=O)c2c1nc(-c1ccc(OC(F)F)c(OC)c1)n2CCOC` the Potency was inconclusive: 15.8 µM [inhibitor, single point]. For `COc1ccc(/C=C/C(=O)NCC(=O)N=Nc2c(O)[nH]c3ccc([N+](=O)[O-])cc23)cc1`, the Potency was inconclusive: 25.1 µM [inhibitor, partial curve]. For `CS(=O)(=O)N1CCN(Cc2ccc(C(F)(F)F)cc2)CC1`, the Potency was inconclusive: 15.8 µM [inhibitor, single point]. In the case of `O=C(Cc1csc(N2CCOCC2)n1)N/N=C/c1ccc(O)c(O)c1O`, the Potency is reported as active: 7.92 µM. `Cc1ccc(C)c(OCCN2CCOCC2)c1` was tested, and the Potency was inconclusive: 28.2 µM [inhibitor, partial curve]. With `CC(=O)n1c2c(c3ccccc31)OC(N)=C(C#N)C2c1ccc(C(C)C)cc1` (stereo not given) the Potency was inconclusive: 12.6 µM [inhibitor, partial curve]. With `Cc1nnc(C)c2c(C)n(C(C)c3ccccc3)c(C)c12` (stereo not given) the Potency was inconclusive: 5 µM [inhibitor, partial curve]. With `COc1ccc(CN2CCN(Cc3ccc(Br)cc3)CC2)c(OC)c1OC` the Potency was inconclusive: 12.6 µM [inhibitor, partial curve]. For `CCOC(=O)c1c(NC(=O)CN2CCCc3ccccc32)sc(C)c1CC`, the Potency was “inactive”. For `COc1ccc(Cn2c(-c3ccc(OC)cc3)nc3ccccc32)cc1`, the Potency was “inactive”. `CCn1c(CNc2ccc(C)cc2)nnc1SCC(N)=O` was tested, and the Potency was “inactive”. `O=C(N/N=C/c1ccccn1)c1ccc(NC(=O)c2cccc([N+](=O)[O-])c2)cc1` was tested, and the Potency was active: 14.1 µM. In the case of `Cc1ccc(N2C(=O)[C@@H]3[C@H](C2=O)C2c4ccccc4C=CN2[C@@H]3C(=O)c2ccco2)c(C)c1` (stereo not given in full), the Potency is reported as inconclusive: 1.26 µM [inhibitor, partial curve]. For `Cc1ccc(-n2c(-c3cc(C)n(C)n3)n[nH]c2=S)cc1`, the Potency was inconclusive: 17.7 µM [inhibitor, partial curve]. `Cc1[nH]n(-c2ccccc2)c(=S)c1C=NCCCN=Cc1c(C)[nH]n(-c2ccccc2)c1=S` was tested, and the Potency was inconclusive: 19.9 µM [activator, single point]. With `Cc1cc(=O)[nH]c(SCC(=O)c2ccccc2)c1C#N` the Potency was inconclusive: 15.8 µM [inhibitor, single point]. For `CCCCNC(=O)CCc1c(C)nc2nc(-c3cc(OC)cc(OC)c3)nn2c1C`, the Potency was “inactive”. With `O=C(/C=C/c1ccc(Cl)cc1)NCCc1ccccc1` the Potency was “inactive”. With `C=C(C)CNC(=S)Nc1cccc2cnccc12` the Potency was inconclusive: 11.2 µM [inhibitor, partial curve]. With `COc1ccccc1N1CCN(/N=C(\C)c2ccc(O)cc2)CC1` the Potency was “inactive”. For `COc1cc(O)c(C(CC(=O)N2CCCC(C)C2)c2ccc3c(c2)OCO3)c(OC)c1` (stereo not given), the Potency was inconclusive: 17.7 µM [inhibitor, partial curve]. In the case of `NC(=O)c1c(NC(NC(=O)c2ccco2)(C(F)(F)F)C(F)(F)F)sc2c1CCCC2`, the Potency is reported as inconclusive: 17.7 µM [inhibitor, partial curve]. In the case of `C/C(=C\C(=O)c1ccc(Br)cc1)NNC(=O)c1ccc(O)cc1`, the Potency is reported as “inactive”. `CCCCCCCC/C=C/CCCCCCCC(=O)NCCOP(=O)(O)O` was tested, and the Potency was inconclusive: 25.1 µM [activator, single point]. For `O=C(C1=C(c2ccccc2)C(=O)c2ccccc2C1=O)c1ccccc1`, the Potency was inconclusive: 0.177 µM [inhibitor, full curve]. For `O=C(Nc1ccc2c(c1)OCCO2)C1CC1c1ccccc1` (stereo not given), the Potency was “inactive”. In the case of `COC(=O)CCCC1=CC2=C(c3ccccc3)C(=O)C(C)(OC(=O)C3CCCC3)C(=O)C2=CN1Cc1ccco1` (stereo not given), the Potency is reported as inconclusive: 4.46 µM [inhibitor, partial curve]. With `CCOc1ccc(-c2noc(-c3cccnc3)n2)cc1OCC` the Potency was “inactive”. For `CCn1cc([N+](=O)[O-])c(C(=O)NCc2ccc3c(c2)OCO3)n1`, the Potency was “inactive”. With `COc1n[nH]c(C(=O)Nc2nc3ccccc3s2)c1[N+](=O)[O-]` the Potency was inconclusive: 25.1 µM [inhibitor, single point]. `CN(C)[C@@H]1C(=O)C(C(N)=O)=C(O)[C@@]2(O)C(=O)C3=C(O)c4c(O)cccc4[C@@](C)(O)C3CC12` (stereo not given in full) was tested, and the Potency was inconclusive: 15.8 µM [inhibitor, partial curve]. In the case of `COc1ccccc1-c1nnc(NC(=O)c2ccc(S(=O)(=O)N(C)Cc3ccccc3)cc2)o1`, the Potency is reported as inconclusive: 25.1 µM [activator, single point]. With `CCOC(=O)c1ccc(-n2c(O)c(/C=N/NC(=O)C3COc4ccccc4O3)c3ccccc3c2=O)cc1` (stereo not given) the Potency was inconclusive: 17.7 µM [activator, single point]. With `Nc1ccc(-c2nc3cc(N)ccc3o2)cc1` the Potency was “inactive”. With `CCN(CC)c1ccc(C(=O)n2cnc3ccccc32)cc1` the Potency was “inactive”. With `Cn1c(SCC(=O)c2ccc(O)c(O)c2)nnc1-c1cccs1` the Potency was active: 5 µM. For `CC1N(C)c2cc(NC(=O)c3ccco3)ccc2C1(C)C` (stereo not given), the Potency was inconclusive: 12.6 µM [inhibitor, partial curve]. For `COc1ccc(OC)c(CN2CCSCC2)c1`, the Potency was inconclusive: 28.2 µM [inhibitor, partial curve]. With `CCCCC(=O)NC(=S)Nc1nnn(CCC)n1` the Potency was active: 1.77 µM. For `N#Cc1cccc(NC(=O)N2CCCC3(CCN(S(=O)(=O)c4ccccc4)CC3)C2)c1`, the Potency was “inactive”. In the case of `O=C1C=C(c2cccs2)C[C@H](c2ccccc2)[C@H]1n1nnc([N+](=O)[O-])n1`, the Potency is reported as inconclusive: 17.7 µM [inhibitor, partial curve]. `CCCCn1c(SCC(N)=O)nc2ccc(N3CCOCC3)cc2c1=O` was tested, and the Potency was inconclusive: 1.77 µM [inhibitor, full curve]. `CC(=O)c1ccc(OC(=O)CCc2nc3ccccc3s2)cc1` was tested, and the Potency was inconclusive: 17.7 µM [inhibitor, single point].

Source: PubChem BioAssay AID2451 (National Center for Advancing Translational Sciences (NCATS), 2010)
Further: nearly all actives have a fitted effect of over 55% in size.
Potency means the concentration at half of the fitted maximal effect; tags describe the fitted curve by direction and shape.
